PubChem BioAssay AID588579 (National Center for Advancing Translational Sciences (NCATS), 2011)
Among all 400,000 compounds or so, about 2,200 (0.55%) were called active. The inconclusive results got no clear call from the source; some entries with a clear call stand among them for comparison. Calls follow the shape of the dose curve; as a rule, active = well fitted inhibition curve with a large enough effect; inconclusive = small, poorly fitted or top-dose-only effect, or another doubt; inactive = no such curve, though single readings can be large or run the other way. Potencies of inconclusive entries are doubtful fits and often do not repeat.

The molecules below were run against DNA polymerase kappa (Homo sapiens) (UniProt Q9UBT6) (assay: qHTS for Inhibitors of Polymerase Kappa). Conditions: purified Pol kappa, fluorescent DNA synthesis assay, 10 min; series mostly up to 107 µM.
Sequence of UniProt Q9UBT6 (Q9UBT6 whole entry, looked up): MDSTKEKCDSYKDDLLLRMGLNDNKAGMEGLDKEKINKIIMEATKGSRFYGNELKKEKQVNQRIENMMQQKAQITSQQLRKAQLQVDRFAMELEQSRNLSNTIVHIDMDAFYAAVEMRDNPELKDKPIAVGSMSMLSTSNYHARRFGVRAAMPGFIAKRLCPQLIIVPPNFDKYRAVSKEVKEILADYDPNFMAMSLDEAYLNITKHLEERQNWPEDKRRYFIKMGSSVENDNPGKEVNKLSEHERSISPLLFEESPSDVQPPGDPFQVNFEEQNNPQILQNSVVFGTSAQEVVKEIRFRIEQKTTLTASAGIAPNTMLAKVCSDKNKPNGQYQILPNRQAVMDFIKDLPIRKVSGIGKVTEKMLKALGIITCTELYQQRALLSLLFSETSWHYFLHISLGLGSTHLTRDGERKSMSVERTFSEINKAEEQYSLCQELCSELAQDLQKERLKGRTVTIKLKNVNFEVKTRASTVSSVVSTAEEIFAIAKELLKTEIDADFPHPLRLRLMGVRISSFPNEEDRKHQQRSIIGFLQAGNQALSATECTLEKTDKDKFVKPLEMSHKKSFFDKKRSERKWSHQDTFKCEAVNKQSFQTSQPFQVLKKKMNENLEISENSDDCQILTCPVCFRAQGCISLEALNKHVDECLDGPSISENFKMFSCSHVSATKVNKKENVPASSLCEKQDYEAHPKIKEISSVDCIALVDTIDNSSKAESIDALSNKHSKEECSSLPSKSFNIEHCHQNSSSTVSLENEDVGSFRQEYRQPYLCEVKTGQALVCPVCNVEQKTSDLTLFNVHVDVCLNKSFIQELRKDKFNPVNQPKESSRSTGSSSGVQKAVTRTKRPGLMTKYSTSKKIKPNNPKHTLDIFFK
How it was run: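 Kinetic fluorescence screen: compound preincubated 15 min RT with 10 nM enzyme; 50 nM substrate (final) initiates; reads at 0/10 min.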
Potency is read from the fitted curve at half-maximal effect; tags tell the direction and shape of the fitted curve.

| Structure (SMILES) | Potency |
| --- | --- |
| CN(C)c1ccc(/C=C/c2sc3ccccc3[n+]2CCCCI)cc1 | active: 50.1 µM |
| CC(=O)Nc1ccc(NC(=O)CSc2nnc(NC(=O)c3ccc(Br)o3)s2)cc1 | inactive |
| COC/C=C/C1=CC2=CC(=O)C(C)(OC(=O)c3cnc4ccccc4n3)C(=O)C2=CN1CC1CC1 (stereo not drawn) | inconclusive: 56.2 µM [inhibitor, partial curve, poor fit] |
| O=c1ccc2c(-c3ccccc3S(=O)(=O)O)c3ccc(O)c(O)c3oc-2c1O | active: 0.708 µM |
| COc1ccccc1CNC(=O)c1cnccn1 | inconclusive: 100 µM [inhibitor, single point] |
| CCOC(=O)c1c(C)oc2c1cc(NS(=O)(=O)c1ccc(C)cc1)c1ccccc12 | inconclusive: 100 µM [inhibitor, partial curve, poor fit] |
| Cc1cc(C(=O)OCC(=O)Nc2sc3c(c2C#N)CCC(C)C3)c2ccccc2n1 (stereo not drawn) | inconclusive: 100 µM [inhibitor, single point] |
| Cc1c(NS(=O)(=O)c2cccc(C(=O)N3CCC(C(N)=O)CC3)c2)c(=O)n(-c2ccccc2)n1C | inconclusive: 89.1 µM [inhibitor, single point] |
| NC(=O)Nc1ccccc1C(=O)Nc1ccc2ccccc2c1 | inconclusive: 89.1 µM [inhibitor, single point] |
| CCCCOc1ccc(/C=N/NC(=O)c2nnn(-c3nonc3N)c2CN2CCCCCC2)cc1 | inconclusive: 79.4 µM [inhibitor, partial curve] |
| CCCNC(=O)c1cnn2c(C(F)F)cc(-c3ccccc3)nc12 | inactive |
| O=S(=O)(c1cccc(C(F)(F)F)c1)N1CCN(c2nc(-c3ccccc3)nc3ccccc23)CC1 | inactive |
| O=c1cc(NCc2ccco2)[nH]c(=O)n1-c1ccc(Br)cc1 | inconclusive: 89.1 µM [inhibitor, single point] |
| Cc1cc(O)c(Oc2cc(C)cc(O)c2O)c(O)c1 | active: 22.4 µM |
| CS(=O)(=O)C1=NSC2=NC(=O)/C(=C\c3cccn3-c3ccccc3Cl)C(=N)N21 | inconclusive: 56.2 µM [inhibitor, partial curve, poor fit] |
| COc1ccc(-c2nc(Cn3c(=O)cc(-c4ccccc4)c4c(C)nn(C)c43)c(C)o2)cc1OC | inactive |
| COc1cc(C(=O)O[C@H]2C/C(C)=C/CC/C(C)=C/[C@@H](O)C2C(C)C)ccc1O (stereo partly drawn) | inconclusive: 37.7 µM [inhibitor, partial curve, poor fit] |
| COc1ccc(C2=NS(=O)(=O)N(C)C(C(=O)Nc3ccc(OC(F)(F)F)cc3)=C2)cc1 | inactive |
| O=C(Nc1ccc(Cl)cc1C(=O)O)c1ccc2c(c1)C(=O)N(Cc1ccco1)C2=O | inconclusive: 28.2 µM [inhibitor, single point] |
| O=C(NCCn1cc(SCc2ccccc2)c2ccccc21)c1cccs1 | inconclusive: 89.1 µM [inhibitor, single point] |
| CC(=O)c1ccc(NC(=O)C2CCC(CNS(=O)(=O)c3cccs3)CC2)cc1 (stereo not drawn) | inconclusive: 89.1 µM [inhibitor, partial curve, poor fit] |
| C/C(=N\Nc1ccc(Cl)c(C(=O)O)c1)c1ccc(Br)s1 | inconclusive: 79.4 µM [inhibitor, single point] |

| Structure (SMILES) | Potency |
| --- | --- |
| Cc1ccc(C(=O)OCC(=O)Nc2c(Cl)cc(S(N)(=O)=O)cc2Cl)o1 | inconclusive: 89.1 µM [inhibitor, single point] |
| O=c1[nH]c(/C=C\c2ccc(O)c(O)c2)nc(O)c1[N+](=O)[O-] | inconclusive: 56.2 µM [inhibitor, partial curve, poor fit] |
| Cc1ccccc1-c1nnc(SCC(=O)N(C)C2CCCCC2)o1 | inconclusive: 100 µM [inhibitor, single point] |
| CCN(CC)Cc1c(O)c(Cl)cc2c(C)cc(=O)oc12 | active: 89.1 µM |
| O=C(NN1C(=O)C2CC=C(Cl)CC2C1=O)c1ccncc1 (stereo not drawn) | active: 50.1 µM |
| COc1cc(OC)c(/C=C/c2nccc3ccccc23)c(OC)c1 | inconclusive: 50.1 µM [inhibitor, partial curve, poor fit] |
| COc1ccc(CCNC(=O)CSCc2c(F)cccc2Cl)cc1OC | inactive |
| C=C(C)C(=O)Nc1cccc(C2=NOC3(C2)C[C@@H](C(N)=O)N(C(=O)C2(C)CC2)C3)c1 (stereo partly drawn) | active: 44.7 µM |
| C#CCNC(=O)C1=C[C@@H](c2ccc(C#C)cc2)C[C@@H](OCCCCO)O1 | inconclusive: 79.4 µM [inhibitor, partial curve] |
| Cc1ccccc1NC(=O)CSc1cn(CC(=O)N(C(C)C)C(C)C)c2ccccc12 | inactive |
| COc1ncc2nc(-c3ccc(F)cc3)c(=O)n(-c3ccccc3)c2n1 | inactive |
| CC(OCCN1CCCC1)(c1ccc(F)cc1)c1ccc(F)cc1 | inconclusive: 89.1 µM [inhibitor, single point] |
| O=C(NCc1ccco1)C1CCCN(S(=O)(=O)c2ccc(-n3cnnn3)cc2)C1 (stereo not drawn) | inconclusive: 89.1 µM [inhibitor, single point] |
| CC(=O)c1ccc(N2CCN(c3ncnc4c3nc3n4CCCC3)CC2)cc1 | inconclusive: 89.1 µM [inhibitor, single point] |
| Cn1c(-c2ccc(Br)cc2)cnc1NCc1ccc(C#N)cc1 | inactive |
| O=C1COc2c1ccc(O)c2O | active: 25.1 µM |
| CN(C)CCP(=O)(c1ccccc1)c1ccccc1 | inactive |
| Nc1cc(C(=O)N/N=C/c2cccc([N+](=O)[O-])c2)n[nH]c1=O | inconclusive: 89.1 µM [inhibitor, partial curve, poor fit] |
| O=C1Nc2ccccc2C1=Nc1ccccc1-c1ccccc1 | inconclusive: 70.8 µM [inhibitor, partial curve, poor fit] |
| O=C(Oc1ccccc1[N+](=O)[O-])c1cccnc1 | inconclusive: 89.1 µM [inhibitor, partial curve] |
| CCOC(=O)CNS(=O)(=O)c1cc(-c2nn(C)c(=O)c3ccccc23)ccc1C | inconclusive: 79.4 µM [inhibitor, partial curve, poor fit] |
